Consider 57 compounds from article PMC4336329 (PLoS ONE, 2015).

In all, about 310,000 compounds went through this assay and about 14,000 (4.5%) showed an effect of 50% or more. Effects have a minus sign here. The list shows a part of the results.
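Note: peak tail current of the secondary pulse compared with the same well before compound.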

Chain of human ether-à-go-go-related gene (hERG) potassium channel (Q12809 whole entry, looked up): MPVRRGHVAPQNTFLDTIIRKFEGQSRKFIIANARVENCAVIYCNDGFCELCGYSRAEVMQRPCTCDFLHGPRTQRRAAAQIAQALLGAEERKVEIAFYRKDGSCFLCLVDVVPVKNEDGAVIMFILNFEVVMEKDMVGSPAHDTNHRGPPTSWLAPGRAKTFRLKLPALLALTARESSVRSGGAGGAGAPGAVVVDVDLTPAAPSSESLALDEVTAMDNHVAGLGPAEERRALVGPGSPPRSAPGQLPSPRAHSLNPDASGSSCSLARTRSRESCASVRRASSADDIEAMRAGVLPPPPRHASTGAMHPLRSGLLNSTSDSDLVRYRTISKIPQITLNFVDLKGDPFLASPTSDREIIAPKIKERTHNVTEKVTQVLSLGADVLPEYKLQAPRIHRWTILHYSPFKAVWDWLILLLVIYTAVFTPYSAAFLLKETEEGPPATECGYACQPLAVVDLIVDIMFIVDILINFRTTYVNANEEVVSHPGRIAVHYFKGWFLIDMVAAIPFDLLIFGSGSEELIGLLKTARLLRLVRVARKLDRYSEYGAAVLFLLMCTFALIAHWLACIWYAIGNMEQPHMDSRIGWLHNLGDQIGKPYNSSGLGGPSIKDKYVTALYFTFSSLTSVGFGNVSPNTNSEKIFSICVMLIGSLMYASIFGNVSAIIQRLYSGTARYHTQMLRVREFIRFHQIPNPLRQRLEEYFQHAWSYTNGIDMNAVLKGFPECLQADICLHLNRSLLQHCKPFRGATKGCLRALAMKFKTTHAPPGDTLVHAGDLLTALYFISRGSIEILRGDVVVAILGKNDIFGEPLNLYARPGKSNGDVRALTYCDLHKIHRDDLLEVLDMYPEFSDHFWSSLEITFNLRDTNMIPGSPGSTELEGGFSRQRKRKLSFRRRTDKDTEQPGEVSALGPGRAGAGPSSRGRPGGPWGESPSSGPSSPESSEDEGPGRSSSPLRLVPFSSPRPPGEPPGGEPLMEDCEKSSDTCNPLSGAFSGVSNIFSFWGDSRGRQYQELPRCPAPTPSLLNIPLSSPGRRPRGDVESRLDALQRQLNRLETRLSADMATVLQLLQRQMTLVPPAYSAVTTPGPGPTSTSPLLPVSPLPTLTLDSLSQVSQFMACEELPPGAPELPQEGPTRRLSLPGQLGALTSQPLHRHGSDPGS

This test concerns the target human ether-à-go-go-related gene (hERG) potassium channel (human, UniProt Q12809). Nature of the test: primary screen, population patch clamp on CHO cells stably expressing hERG.
As to `Cc1ccc2[nH]c3c(c2c1)CCCC3C(N)=O` (stereo not drawn), the “hERG current change (%, negative = inhibition) at 10uM” value is 12.6%.

As for `Cc1ccc(S(=O)(=O)N2CCN(C(=O)CCCOc3ccc(Cl)cc3C)CC2)cc1`, the “hERG current change (%, negative = inhibition) at 10uM” value is reported as -20.8%.

On to `CCOC(=O)NC(=S)Nc1ccc(C(C)(C)C)cc1`, for which the “hERG current change (%, negative = inhibition) at 10uM” value worked out at 3.81%.

For `Cl.O=C(O)C(c1ccccc1)N1CCCCC1` (stereo not drawn), the “hERG current change (%, negative = inhibition) at 10uM” value came out at 26.7%.

Take `COc1ccc(NC(=O)c2nnn(Cc3ccc(SC)cc3)c2N)c(OC)c1`: the “hERG current change (%, negative = inhibition) at 10uM” value is recorded as 13.7%.

As for `Cc1cc(C)n2nc[n+](C)c2n1.[I-]`, the “hERG current change (%, negative = inhibition) at 10uM” value is reported as 16.3%.

Consider `COc1ccc(/C=N/c2oc(C)c(C)c2C#N)c(OC)c1`, for which the “hERG current change (%, negative = inhibition) at 10uM” value is 14.2%.

In the case of `NC(=O)C1CCCN(C(=O)CCCNC(=O)c2ccc(Cl)cc2)C1` (stereo not drawn), the “hERG current change (%, negative = inhibition) at 10uM” value came to 22.4%.

On to `COC(=O)[C@]1(C)N[C@H](c2ccc(-c3ccc(Cl)c(Cl)c3)cc2)[C@@H]2C(=O)N(C)C(=O)[C@@H]21.O=C(O)C(F)(F)F`, for which the “hERG current change (%, negative = inhibition) at 10uM” value came to 13.2%.

With `COc1ccccc1N(C(=O)CNC(=O)c1ccco1)C(C(=O)NC1CCCCC1)c1ccncc1` (stereo not drawn), the “hERG current change (%, negative = inhibition) at 10uM” value turned out to be 25.1%.

With `COc1ccc(-c2cc(C(=O)N/N=C/c3sccc3C)c3ccccc3n2)c(OC)c1`, the “hERG current change (%, negative = inhibition) at 10uM” value worked out at 1.29%.

In the case of `CN(CC(=O)NC1CCCCCC1)S(=O)(=O)c1cnc[nH]1`, the “hERG current change (%, negative = inhibition) at 10uM” value came out at 18.9%.

With `CC(=O)OC(C(=O)NC1CCCCC1)c1ccccc1` (stereo not drawn), the “hERG current change (%, negative = inhibition) at 10uM” value came out at 12.9%.

Take `O=C(CSc1ncccn1)NC(=O)Cc1ccccc1`: the “hERG current change (%, negative = inhibition) at 10uM” value was found to be 11.5%.

Regarding `O=[N+]([O-])c1ccc(Oc2c(F)c(F)nc(N3CCCC3)c2F)cc1`, the “hERG current change (%, negative = inhibition) at 10uM” value is reported as -19.7%.

Turning to `CCOC(=O)Cn1nc(C)c(NC(=O)COc2ccccc2)c1C`, the “hERG current change (%, negative = inhibition) at 10uM” value came out at 14%.

Take `CNC(=O)COC(=O)/C=C/c1cn(-c2ccccc2)nc1-c1ccc2c(c1)OCCO2`: the “hERG current change (%, negative = inhibition) at 10uM” value was determined as 4.05%.

With `COCCN(C(=O)c1snc(C(N)=O)c1N)C(C(=O)NC1CCCC1)c1cc(OC)c(OC)c(OC)c1` (stereo not drawn), the “hERG current change (%, negative = inhibition) at 10uM” value is listed as -46.8%.

For `Cc1ccc(C(=O)Nc2ccc(N3CCOCC3)nc2)cc1`, the “hERG current change (%, negative = inhibition) at 10uM” value is -9.28%.

Regarding `CCOc1ccc(Br)cc1S(=O)(=O)N1CCSC1`, the “hERG current change (%, negative = inhibition) at 10uM” value is given as -10.6%.

Regarding `O=C(NCC1CCCO1)c1sc(=S)n2c1[nH]c(=O)c1ccc(C(=O)N3CCCCC3)cc12` (stereo not drawn), the “hERG current change (%, negative = inhibition) at 10uM” value is recorded as -5.75%.

`CCCCn1c(N)c(N(CCOC)C(=O)C2CCN(S(=O)(=O)c3ccc(F)cc3)CC2)c(=O)[nH]c1=O`: the “hERG current change (%, negative = inhibition) at 10uM” value is -1.06%.

Consider `CC1(NC(=O)CCc2ccccc2)CCN(CCCc2ccccc2)C1=O` (stereo not drawn), for which the “hERG current change (%, negative = inhibition) at 10uM” value was determined as 5.85%.

On to `Cc1cccc(C)c1NC(=O)Cn1c(=O)n(CCC(=O)NCc2ccco2)c(=O)c2sccc21`, for which the “hERG current change (%, negative = inhibition) at 10uM” value was -1.77%.

For the compound `CCCN(Cc1nnc(-c2cccs2)o1)C(=O)c1cc(S(=O)(=O)N2CCOCC2)ccc1C`, the “hERG current change (%, negative = inhibition) at 10uM” value is reported as -37.1%.

Consider `O=C(NCc1cccs1)C1CCN(C(=O)NCc2ccccc2)CC1`, for which the “hERG current change (%, negative = inhibition) at 10uM” value stood at 8.39%.

In the case of `CCC(C)(C)NC(=O)c1ccc(Sc2nncn2C)c([N+](=O)[O-])c1`, the “hERG current change (%, negative = inhibition) at 10uM” value is on record as 3.37%.

Turning to `CN(C)S(=O)(=O)c1cccc(NC(=O)CSc2nncn2C)c1`, the “hERG current change (%, negative = inhibition) at 10uM” value turned out to be 11.6%.

Consider `COc1ccc(Cl)cc1NC(=O)CN(C)C(=O)c1cc2c(s1)CCC(C)C2` (stereo not drawn), for which the “hERG current change (%, negative = inhibition) at 10uM” value is reported as -0.503%.

Take `Cc1ccc(/C=C(\NC(=O)c2ccccc2)C(=O)N2CCCC2C(=O)O)cc1` (stereo not drawn): the “hERG current change (%, negative = inhibition) at 10uM” value was 22.7%.

For `Cc1cc(-c2n[nH]c(=S)n2/N=C/c2ccc(C)o2)n[nH]1`, the “hERG current change (%, negative = inhibition) at 10uM” value came out at 16.4%.

`N/C(=N\OC(=O)Cc1ccc([N+](=O)[O-])cc1)c1ccc([N+](=O)[O-])cc1`: the “hERG current change (%, negative = inhibition) at 10uM” value is -24.4%.

Turning to `CNC(=S)SCCOc1ccccc1C`, the “hERG current change (%, negative = inhibition) at 10uM” value is -9.49%.

Regarding `COc1ccc(OC)c(C2NC(=O)NC(C)=C2C(=O)OC2CCCCC2)c1` (stereo not drawn), the “hERG current change (%, negative = inhibition) at 10uM” value turned out to be 8.22%.

Take `Clc1cccc(Nc2nc(-c3cccnc3)cs2)c1`: the “hERG current change (%, negative = inhibition) at 10uM” value was -4.06%.

With `CC(=O)NC1(C(F)(F)F)C(=O)Nc2c1c(=O)[nH]c(=O)n2Cc1ccco1` (stereo not drawn), the “hERG current change (%, negative = inhibition) at 10uM” value was 1.97%.

On to `CCOc1ccc(NC(=O)CCS(=O)(=O)c2ccc(C)cc2)cc1`, for which the “hERG current change (%, negative = inhibition) at 10uM” value turned out to be 4.49%.

Consider `CCc1c(C)c2c(C)nn(-c3ccccc3)c2oc1=O`, for which the “hERG current change (%, negative = inhibition) at 10uM” value was found to be 8.11%.

`CCOC(=O)COc1ccccc1/C=N\NC(=O)c1cc2c(ccc3ccccc32)o1`: the “hERG current change (%, negative = inhibition) at 10uM” value is listed as 20.3%.

On to `COc1ccc(OCC(=O)N2CCN(S(=O)(=O)c3ccc(Cl)s3)CC2)cc1`, for which the “hERG current change (%, negative = inhibition) at 10uM” value is on record as -0.573%.

For the compound `N/C(=N\O)c1ccc(NC(=O)c2cccs2)cc1`, the “hERG current change (%, negative = inhibition) at 10uM” value is on record as 6.68%.

As to `c1ccc(CCc2ccncc2)cc1`, the “hERG current change (%, negative = inhibition) at 10uM” value is 12%.

Regarding `Cc1cc(=O)oc2c3c(cc(OCC(=O)NCCN4CCOCC4)c12)OC(C)(C)CC3`, the “hERG current change (%, negative = inhibition) at 10uM” value turned out to be 5.91%.

In the case of `COc1ccccc1CNc1nc(SC)ncc1CO`, the “hERG current change (%, negative = inhibition) at 10uM” value is given as -12.5%.

As for `O=C(Cc1cccs1)Nc1nc(-c2ccc(F)cc2F)cs1`, the “hERG current change (%, negative = inhibition) at 10uM” value is reported as -4.34%.

Turning to `CN(C)c1ccc(C=C2C(=O)NC(=O)NC2=O)cc1[N+](=O)[O-]`, the “hERG current change (%, negative = inhibition) at 10uM” value worked out at 30.8%.

On to `FC(F)(F)c1ccc(N/N=C/c2cccnc2)nc1`, for which the “hERG current change (%, negative = inhibition) at 10uM” value is recorded as -10.5%.

With `COC(=O)c1c(-c2ccc(OC)cc2)sc2ccccc12`, the “hERG current change (%, negative = inhibition) at 10uM” value is 3.29%.

On to `COc1ccccc1/C=N/NC(=O)c1ccc(NC(=O)c2cccc([N+](=O)[O-])c2)cc1`, for which the “hERG current change (%, negative = inhibition) at 10uM” value is reported as 9.83%.

For the compound `CCO[C@H]1OC(C(=O)N2CCN(Cc3ccc4c(c3)OCO4)CC2)=C[C@@H](C2CC2)[C@@H]1CCCO`, the “hERG current change (%, negative = inhibition) at 10uM” value is -10.7%.

For the compound `CCc1ccc(-n2c(C)cc(/C=N/NC(=O)c3ccncc3)c2C)cc1`, the “hERG current change (%, negative = inhibition) at 10uM” value is recorded as -4.97%.

As to `Cc1ccc(S(=O)(=O)N(C)CC(=O)NC2CCCC2)cc1`, the “hERG current change (%, negative = inhibition) at 10uM” value is -2.71%.

`CCCCNCC(=O)Nc1ccc(NC(=O)CNCCCC)cc1`: the “hERG current change (%, negative = inhibition) at 10uM” value is given as 20.4%.

On to `O=C1C2C3C=CC([C@@H]2C(=O)N1Cc1cccnc1)C31CC1` (stereo partly drawn), for which the “hERG current change (%, negative = inhibition) at 10uM” value came to 4.5%.

`CC(=O)N(Cc1ccc(Br)cc1)c1ccccc1C(=O)O`: the “hERG current change (%, negative = inhibition) at 10uM” value is reported as 6.81%.

For `Nc1cc(=O)[nH]n1C1CCN(c2ccccc2)CC1`, the “hERG current change (%, negative = inhibition) at 10uM” value is reported as 15.2%.

`CCCCc1nnc(NC(=O)CCN2C(=O)C3CC=CCC3C2=O)s1` (stereo not drawn): the “hERG current change (%, negative = inhibition) at 10uM” value is -1.38%.
